Test results: publication PMC4336329 (PLoS ONE, 2015)
The campaign covered roughly 310,000 compounds. About 14,000 (4.5%) showed an effect of 50% or more. The effect is printed as a negative number. Some of the results follow.

These molecules were tested against human ether-à-go-go-related gene (hERG) potassium channel (human, UniProt Q12809) (assay: primary screen, population patch clamp on CHO cells stably expressing hERG).
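Note: peak tail current of the secondary pulse compared with the same well before compound.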

Chain of human ether-à-go-go-related gene (hERG) potassium channel (Q12809 whole entry, looked up): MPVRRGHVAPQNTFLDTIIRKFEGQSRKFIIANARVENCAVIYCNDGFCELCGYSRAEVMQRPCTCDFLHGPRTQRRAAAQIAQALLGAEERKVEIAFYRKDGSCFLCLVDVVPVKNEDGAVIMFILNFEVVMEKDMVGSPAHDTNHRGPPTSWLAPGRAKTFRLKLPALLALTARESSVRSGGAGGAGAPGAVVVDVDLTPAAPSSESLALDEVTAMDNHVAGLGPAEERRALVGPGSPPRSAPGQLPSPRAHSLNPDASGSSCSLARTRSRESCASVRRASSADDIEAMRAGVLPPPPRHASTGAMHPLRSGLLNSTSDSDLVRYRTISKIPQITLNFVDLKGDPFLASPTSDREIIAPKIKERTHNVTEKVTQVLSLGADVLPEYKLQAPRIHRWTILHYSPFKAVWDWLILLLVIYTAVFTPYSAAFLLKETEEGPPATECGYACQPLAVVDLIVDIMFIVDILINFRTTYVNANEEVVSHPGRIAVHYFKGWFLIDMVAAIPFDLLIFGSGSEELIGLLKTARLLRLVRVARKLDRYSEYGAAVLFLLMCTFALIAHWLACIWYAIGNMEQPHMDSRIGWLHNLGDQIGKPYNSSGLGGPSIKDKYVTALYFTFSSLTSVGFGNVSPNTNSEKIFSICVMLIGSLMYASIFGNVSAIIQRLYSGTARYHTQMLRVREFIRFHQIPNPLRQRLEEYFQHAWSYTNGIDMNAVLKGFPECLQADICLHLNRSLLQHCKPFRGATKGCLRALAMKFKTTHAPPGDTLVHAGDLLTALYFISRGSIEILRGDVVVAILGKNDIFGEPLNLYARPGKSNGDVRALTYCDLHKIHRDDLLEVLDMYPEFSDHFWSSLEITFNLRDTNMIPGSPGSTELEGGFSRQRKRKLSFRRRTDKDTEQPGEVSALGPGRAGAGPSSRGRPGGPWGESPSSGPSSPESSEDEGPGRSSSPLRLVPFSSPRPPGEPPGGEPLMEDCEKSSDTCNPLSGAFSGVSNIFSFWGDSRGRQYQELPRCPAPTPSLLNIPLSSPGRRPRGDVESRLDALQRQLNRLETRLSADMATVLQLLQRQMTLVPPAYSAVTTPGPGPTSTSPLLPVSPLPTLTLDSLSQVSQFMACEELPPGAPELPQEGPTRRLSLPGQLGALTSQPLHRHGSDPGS

Compound | hERG current change (%, negative = inhibition) at 10uM [%]
CC(C)(C)C(=O)[C@@H]1[C@@H]2C(=O)N(c3ccc4c(c3)OCCO4)C(=O)[C@@H]2C2c3ccccc3C=CN21 (stereo partly drawn) | -20.5
CCOC(=O)c1[nH]c(C)c(C(=O)NC(C)CC)c1C (stereo not drawn) | 8.1
CCOc1ccc(OCC(=O)NCCS(=O)(=O)N2CCN(c3ccc(F)cc3)CC2)cc1 | -11.7
Nc1ccc(Oc2ccc3c(c2)C(=O)N(CC2CCCO2)C3=O)cc1 (stereo not drawn) | 3.91
O=C(NCCCn1ccnc1)C(=O)NCC1OCCN1S(=O)(=O)c1cc(F)ccc1F (stereo not drawn) | -3.48
COc1cc(-c2nnc(COC(=O)c3cc(C)no3)o2)cc(OC)c1OC | 10.5
O=C(NCCN1C(=O)S/C(=C/c2cccnc2)C1=O)c1cccs1 | -17.2
Cc1cccc(NC(=O)CSc2nnc(CSc3nc(C)cc(C)n3)o2)c1 | 12
Cc1cccc(C2CC(c3ccccc3)Nc3ncnn32)c1 (stereo not drawn) | -18.1
COc1ccc(CNC(=O)CCNS(=O)(=O)c2ccc(C)cc2)cc1 | -11.6
COC(=O)C1=C(c2ccc(S(C)(=O)=O)cc2)C[C@@H]2CC[C@H]1N2C(=O)NCC1CC1 | -10
COc1ccc(/C=N/NC(=O)Cn2cnc3ccccc3c2=O)cc1 | 2.36
CS(=O)(=O)c1ccc(NC(=O)CCN2C(=O)C3CCCCC3C2=O)cc1 (stereo not drawn) | -11.1
CN(CC(=O)Nc1ccccc1C(=O)N1CCCC1)S(=O)(=O)c1ccc(Br)cc1 | -31.4
Cc1cccc(C)c1OC(=O)CN1C(=O)c2ccccc2C1=O | 20.7
COc1ccc(CNC(=O)COC(=O)CC(NC(N)=O)c2ccc(Cl)cc2)cc1OC (stereo not drawn) | 1.27
O=C1C=C(c2ccccc2)C[C@H](c2cccs2)[C@H]1n1nnc([N+](=O)[O-])n1 | -19.8
Cc1c(C(=O)c2ccccc2C(=O)O)sc2ccccc12 | 15
CC1=CC(c2ccc(Cl)cc2)n2nc(NC(=O)c3ccccc3)nc2N1 (stereo not drawn) | -39.8
Cc1nnc(NC(=O)C2CC(=O)N(Cc3ccccc3)C2)s1 (stereo not drawn) | 8.96
CCC(=O)N1C(=O)CCN(C(C)=O)c2ccccc21 | 6.48
O=C(Nc1ccc(N2CCOCC2)c(Cl)c1)c1ccco1 | -3.16
COC(=O)[C@@H]1C[C@]2(C(=O)O)c3ccccc3N(OOSc3ccccc3)[C@@H]2N1C(=O)OC | 23.9

Compound | hERG current change (%, negative = inhibition) at 10uM [%]
Cc1ccc(CNC(=O)C2CCCN(S(=O)(=O)c3cnc[nH]3)C2)cc1 (stereo not drawn) | 4.46
Cc1ccc(OCC(=O)N(Cc2ccc(C)o2)C2CCS(=O)(=O)C2)cc1 (stereo not drawn) | -52.3
O=C1CC(NS(=O)(=O)c2cccs2)CN1c1cccc(F)c1 (stereo not drawn) | -6.29
CCOC(=O)c1cc(-c2csc(Nc3c(C)cc(C)cc3C)n2)on1 | 23.4
CCSc1nc2c(c(=O)n1-c1ccc(F)cc1)SCC2 | -4.12
O=C(O)C=C1C2CC3CC(C2)CC1C3 | -4.71
COc1ccc(-c2cc(-c3cccs3)nc3sc(C#N)c(N)c23)cc1 | -0.398
CCOC(=O)C1=C(C)NC(C)=C(C(=O)OCC)C1c1nc2ccccc2[nH]1 | 14.3
O=c1[nH]cnc2ccc([N+](=O)[O-])cc12 | -2.77
OCCSc1nc(-c2cccnc2)nc2ccccc12 | -15.1
COC(=O)c1c(-n2c(C)cc(C=O)c2C)sc2c1CCCC2 | 6.81
Cc1cc(C)c(S(=O)(=O)c2cc(F)ccc2C)c(Cl)n1 | 7.31
COc1ccc(/C(N)=N/OC(=O)CCCc2ccccc2)cc1OC | -7.19
O=P(c1ccccc1)(c1ccccc1)c1nc2ccccc2s1 | -15.8
Br.COc1ccc(/C(O)=C/Sc2nnc(Cc3ccccc3)o2)cc1 | 4.42
CCOc1ccc(C(C)=O)cc1CN1C(=O)c2ccccc2S1(=O)=O | 9.63
Cc1ccc(C)c(NC(=S)NCCCN2CCOCC2)c1 | 4.83
Cc1ccc(C(=O)Nc2ccc(Cl)cn2)cc1 | -3.84
Cc1cc(NC(=O)CSc2cn(C)c3ccccc23)no1 | -4.36
CC(C(=O)N1CCN(Cc2ccc3c(c2)OCO3)CC1)c1ccc([N+](=O)[O-])cc1 (stereo not drawn) | -34.9
Cc1cnc(C(=O)OC(C)C(=O)NCc2ccccc2)cn1 (stereo not drawn) | 3.99
C/C(N)=C(/C#N)C(=O)COC(=O)CSc1ccccc1 | 15.5
CC(C)(C)OC(=O)N1CCC[C@H]1c1nnc(SCc2ccccc2Cl)o1 | -5.07

Compound | hERG current change (%, negative = inhibition) at 10uM [%]
NC(=O)Cn1nc([N+](=O)[O-])nc1Oc1ccccc1C(=O)N1CCOCC1 | 2.94
CC(C)Oc1ccc(N2CC(C(=O)Nc3ccccn3)CC2=O)cc1 (stereo not drawn) | -34.8
c1ccc(NCC2OCc3ccccc3CO2)cc1 | -8.61
Cc1cc(NC(=O)c2cnn3cccnc23)no1 | -0.805
COC(CNC(=O)CCc1c(C)nc2c(-c3ccccc3)c(C)nn2c1C)OC | -4.2
O=C(NC1CCCCC1)C(c1cccs1)N(CC1CCCO1)C(=O)c1csnn1 (stereo not drawn) | -16.1
O=C(O)c1ccc2[nH]c3c(c2c1)CSCC3 | 13.3
COc1ccc(-c2nc(Cc3ccc(Cl)cc3)no2)cc1OC | 13.8
Cc1nnc(SCC(=O)Nc2sc3c(c2C#N)CCCC3)[nH]c1=O | 6.79
CCOc1nc2c(c(-c3cccs3)c1C#N)Cc1ccccc1-2 | 18.1
COC(=O)c1ccc(CSc2nnc(Nc3ccc(OC)cc3)s2)o1 | -8.85
Cc1c(C(=O)O)oc2c1C(=O)CC(C)(C)C2 | -13.2
Cc1ccc2nc(N(CCN3CCOCC3)C(=O)CCS(=O)(=O)c3ccccc3)sc2c1.Cl | 5.37
Cc1nc(SCC(=O)Nc2cccc(Cl)c2)n[nH]1 | 6.87
CCOC(=O)COc1ccc2nsnc2c1 | 21.3
O=C(CSc1nc2ccccc2nc1SCC(=O)N1CCCCC1)N1CCCCC1 | -6.99
CCOc1ccc(NC(=O)CSc2nccn2Cc2ccco2)cc1 | -19.5
Cc1noc(C)c1S(=O)(=O)N1CCCC(C(=O)N2CCN(C3CCCCC3)CC2)C1 (stereo not drawn) | -23.7
CC(=O)OC1(C(F)(F)F)Oc2ccccc2NC1=O (stereo not drawn) | 0.864
CCCCC[C@H]1CN(CCCC)C(=O)[C@@H]1CC(=O)NCc1ccccc1 | -73.5
S=C(Nc1ccccc1)N1CCn2c(nc3ccccc32)C1 | -13.1
CCOC(=O)N1CCN(C(=O)CSCc2ccccc2Cl)CC1 | -1.25
Cl.Nc1ccc2nc[nH]c2c1 | 35.2

Compound | hERG current change (%, negative = inhibition) at 10uM [%]
CCN(CC)CCNC(=O)c1cc2c(=O)n(C)c3ccccc3c2n1C | -1.17
O=C(CSc1nc(-c2ccc(F)cc2)cs1)N1CCOCC1 | -25.4
CCOC(=O)c1cn(C2CC2)c2c(F)c(F)c(F)cc2c1=O | 6.74
COc1cc(CNn2c(C)n[nH]c2=S)cc(Cl)c1OCc1ccccc1 | -18.4
C=CCc1c(C)nc(SCc2nc3ccccc3c(=O)[nH]2)[nH]c1=O | 17
COc1cccc(OCc2ccc(C(=O)NCC3CCCO3)cc2)c1 (stereo not drawn) | -7.03
CCC(C)Nc1c2c(nc3c(-c4ccccc4)c(C)nn13)CCC2 (stereo not drawn) | -17.7
c1ccc(-c2noc(CN3CCCC(OCc4ccccn4)C3)n2)cc1 (stereo not drawn) | -12.1
Cc1ccc(-c2nnn(CC(=O)NCc3ccccc3)n2)c(-n2cnnn2)c1 | -1.11
COc1ccc(-n2nc(C(=O)NCC(=O)NCCc3ccc(OC)c(OC)c3)c3ccccc3c2=O)cc1 | 6.36
CCC(=O)N1CCCc2cc(S(=O)(=O)NCc3cccs3)ccc21 | -6.38
O=C(Nc1ccccc1)O/N=C1\CCCCC1c1ccc([N+](=O)[O-])cc1[N+](=O)[O-] (stereo not drawn) | -20
C=CCN(C(=O)c1ccc(Cl)cc1)c1ccccc1C(=O)NCC(=O)O | 21.1
O=C(NNC(=O)C1CCC1)c1ccc(Br)cc1 | -1.26
CNC(=O)c1[nH]nc2c1CCc1ccccc1-2 | 4.63
Cc1ccc2nc(SCC(=O)NCc3ccc(F)cc3)nc(=O)n2c1 | -21.7
CCN(CC)C(=O)Cn1nc(-c2ccccc2O)nc1SCC(=O)Nc1ccc(OC)cc1 | -26.1
CCOC(=O)c1cnc(-c2cccc(OC)c2)[nH]c1=O | -8.93
Cl.OCCN(CCO)CC(O)COc1ccc(C23CC4CC(CC(C4)C2)C3)cc1 (stereo not drawn) | -13.2
Cc1ccc(CNC(=O)[C@H](C)NC(=O)C2CCN(C(=O)[C@@H](N)CC(C)C)CC2)cc1 | 3.65
COc1cccc(-c2nc(CS(=O)(=O)CC(=O)NCCCN3CCc4ccccc4C3)c(C)o2)c1 | -71.6
